Assay results: the supplement of paper PMC8728848
The list shows a part of the results.

Experiments:
Assay in all cases: glycan array binding signal (z-score within array); higher = stronger binding
Details in all cases: glycan notation: IUPAC condensed, linker removed
GlcNAc(b1-3)Gal(b1-4)Glc = target: GlcNAc(b1-3)Gal(b1-4)Glc
Method in brief: (§1)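 The binding signal is a Z-score computed within each array. Data were drawn from 3228 arrays in the Consortium for Functional Glycomics database, restricted to those with a known protein sequence. Scores were averaged over arrays of the same protein sequence at different concentrations or buffers, and over linkers, and negative values can be taken as non-binding.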

[1] = target: GlcNAc(b1-3)Gal(b1-4)GlcNAc
Method in brief: as §1

[2] = target: GlcNAc(b1-3)Gal(b1-4)GlcNAc(b1-2)Man(a1-3)[GlcNAc(b1-3)Gal(b1-4)GlcNAc(b1-2)Man(a1-6)]Man(b1-4)GlcNAc(b1-4)GlcNAc
Method in brief: as §1

[3] = target: GlcNAc(b1-3)Gal(b1-4)GlcNAc(b1-2)Man(a1-3)[GlcNAc(b1-3)Gal(b1-4)GlcNAc(b1-2)Man(a1-6)]Man(b1-4)GlcNAc(b1-4)[Fuc(a1-6)]GlcNAc
Method in brief: as §1

[4] = target: GlcNAc(b1-3)Gal(b1-4)GlcNAc(b1-2)[GlcNAc(b1-3)Gal(b1-4)GlcNAc(b1-6)]Man(a1-6)[GlcNAc(b1-3)Gal(b1-4)GlcNAc(b1-2)Man(a1-3)]Man(b1-4)GlcNAc(b1-4)GlcNAc
Method in brief: as §1

[5] = target: GlcNAc(b1-3)Gal(b1-4)GlcNAc(b1-3)Gal(b1-4)GlcNAc
Method in brief: as §1

[6] = target: GlcNAc(b1-3)Gal(b1-4)GlcNAc(b1-3)Gal(b1-4)GlcNAc(b1-2)Man(a1-3)[GlcNAc(b1-3)Gal(b1-4)GlcNAc(b1-3)Gal(b1-4)GlcNAc(b1-2)Man(a1-6)]Man(b1-4)GlcNAc(b1-4)GlcNAc
Method in brief: as §1

[7] = target: GlcNAc(b1-3)Gal(b1-4)GlcNAc(b1-3)Gal(b1-4)GlcNAc(b1-2)Man(a1-3)[GlcNAc(b1-3)Gal(b1-4)GlcNAc(b1-3)Gal(b1-4)GlcNAc(b1-2)Man(a1-6)]Man(b1-4)GlcNAc(b1-4)[Fuc(a1-6)]GlcNAc
Method in brief: as §1

[8] = target: GlcNAc(b1-3)Gal(b1-4)GlcNAc(b1-3)Gal(b1-4)GlcNAc(b1-2)[GlcNAc(b1-3)Gal(b1-4)GlcNAc(b1-3)Gal(b1-4)GlcNAc(b1-6)]Man(a1-6)[GlcNAc(b1-3)Gal(b1-4)GlcNAc(b1-3)Gal(b1-4)GlcNAc(b1-2)Man(a1-3)]Man(b1-4)GlcNAc(b1-4)[Fuc(a1-6)]GlcNAc
Method in brief: as §1

[9] = target: GlcNAc(b1-3)Gal(b1-4)GlcNAc(b1-3)Gal(b1-4)GlcNAc(b1-3)Gal(b1-4)GlcNAc(b1-2)Man(a1-3)[GlcNAc(b1-3)Gal(b1-4)GlcNAc(b1-3)Gal(b1-4)GlcNAc(b1-3)Gal(b1-4)GlcNAc(b1-2)Man(a1-6)]Man(b1-4)GlcNAc(b1-4)GlcNAc
Method in brief: as §1

[10] = target: GlcNAc(b1-3)Gal(b1-4)GlcNAc(b1-3)Gal(b1-4)GlcNAc(b1-3)Gal(b1-4)GlcNAc(b1-2)Man(a1-3)[GlcNAc(b1-3)Gal(b1-4)GlcNAc(b1-3)Gal(b1-4)GlcNAc(b1-3)Gal(b1-4)GlcNAc(b1-2)Man(a1-6)]Man(b1-4)GlcNAc(b1-4)[Fuc(a1-6)]GlcNAc
Method in brief: as §1

[11] = target: GlcNAc(b1-3)Gal(b1-4)GlcNAc(b1-3)Gal(b1-4)GlcNAc(b1-3)Gal(b1-4)GlcNAc(b1-2)[GlcNAc(b1-3)Gal(b1-4)GlcNAc(b1-3)Gal(b1-4)GlcNAc(b1-3)Gal(b1-4)GlcNAc(b1-6)]Man(a1-6)[GlcNAc(b1-3)Gal(b1-4)GlcNAc(b1-3)Gal(b1-4)GlcNAc(b1-3)Gal(b1-4)GlcNAc(b1-2)Man(a1-3)]Man(b1-4)GlcNAc(b1-4)[Fuc(a1-6)]GlcNAc
Method in brief: as §1

[12] = target: GlcNAc(b1-3)Gal(b1-4)GlcNAc(b1-3)Gal(b1-4)GlcNAc(b1-3)Gal(b1-4)GlcNAc(b1-3)Gal(b1-4)GlcNAc(b1-2)Man(a1-3)[GlcNAc(b1-3)Gal(b1-4)GlcNAc(b1-3)Gal(b1-4)GlcNAc(b1-3)Gal(b1-4)GlcNAc(b1-3)Gal(b1-4)GlcNAc(b1-2)Man(a1-6)]Man(b1-4)GlcNAc(b1-4)GlcNAc
Method in brief: as §1

[13] = target: GlcNAc(b1-3)Gal(b1-4)GlcNAc(b1-3)Gal(b1-4)GlcNAc(b1-3)Gal(b1-4)GlcNAc(b1-3)Gal(b1-4)GlcNAc(b1-2)Man(a1-3)[GlcNAc(b1-3)Gal(b1-4)GlcNAc(b1-3)Gal(b1-4)GlcNAc(b1-3)Gal(b1-4)GlcNAc(b1-3)Gal(b1-4)GlcNAc(b1-2)Man(a1-6)]Man(b1-4)GlcNAc(b1-4)[Fuc(a1-6)]GlcNAc
Method in brief: as §1

[14] = target: GlcNAc(b1-3)Gal(b1-4)GlcNAc(b1-3)Gal(b1-4)GlcNAc(b1-3)Gal(b1-4)GlcNAc(b1-3)Gal(b1-4)GlcNAc(b1-2)[GlcNAc(b1-3)Gal(b1-4)GlcNAc(b1-3)Gal(b1-4)GlcNAc(b1-3)Gal(b1-4)GlcNAc(b1-3)Gal(b1-4)GlcNAc(b1-6)]Man(a1-6)[GlcNAc(b1-3)Gal(b1-4)GlcNAc(b1-3)Gal(b1-4)GlcNAc(b1-3)Gal(b1-4)GlcNAc(b1-3)Gal(b1-4)GlcNAc(b1-2)Man(a1-3)]Man(b1-4)GlcNAc(b1-4)[Fuc(a1-6)]GlcNAc
Method in brief: as §1

[15] = target: GlcNAc(b1-3)Gal(b1-4)GlcNAc(b1-3)Gal(b1-4)GlcNAc(b1-3)GalNAc
Method in brief: as §1

[16] = target: GlcNAc(b1-3)Gal(b1-4)GlcNAc(b1-3)GalNAc
Method in brief: as §1

[17] = target: GlcNAc(b1-3)Gal(b1-4)GlcNAc(b1-3)[GlcNAc(b1-3)Gal(b1-4)GlcNAc(b1-3)]GalNAc
Method in brief: as §1

[18] = target: GlcNAc(b1-3)Gal(b1-4)GlcNAc(b1-6)[Gal(b1-3)]GalNAc
Method in brief: as §1

[19] = target: GlcNAc(b1-3)Gal(b1-4)GlcNAc(b1-6)[GlcNAc(b1-3)Gal(b1-3)]GalNAc
Method in brief: as §1

[20] = target: GlcNAc(b1-3)Gal(b1-4)GlcNAc(b1-6)[GlcNAc(b1-3)]Gal(b1-4)GlcNAc
Method in brief: as §1

GlcNAc(b1-3)GalNAc = target: GlcNAc(b1-3)GalNAc
Method in brief: as §1

GlcNAc(b1-3)Man = target: GlcNAc(b1-3)Man
Method in brief: as §1

[21] = target: GlcNAc(b1-3)[GlcNAc(b1-4)][GlcNAc(b1-6)]GlcNAc
Method in brief: as §1

[22] = target: GlcNAc(b1-3)[GlcNAc(b1-6)]Gal(b1-4)GlcNAc
Method in brief: as §1

[23] = target: GlcNAc(b1-3)[GlcNAc(b1-6)]GalNAc
Method in brief: as §1

[24] = target: GlcNAc(b1-4)Gal(b1-4)GlcNAc
Method in brief: as §1

GlcNAc(b1-4)GlcNAc = target: GlcNAc(b1-4)GlcNAc
Method in brief: as §1

[25] = target: GlcNAc(b1-4)GlcNAc(b1-4)GlcNAc
Method in brief: as §1

[26] = target: GlcNAc(b1-4)GlcNAc(b1-4)GlcNAc(b1-4)GlcNAc(b1-4)GlcNAc
Method in brief: as §1

[27] = target: GlcNAc(b1-4)GlcNAc(b1-4)GlcNAc(b1-4)GlcNAc(b1-4)GlcNAc(b1-4)GlcNAc
Method in brief: as §1

[28] = target: GlcNAc(b1-4)[GlcNAc(b1-6)]GalNAc
Method in brief: as §1

[29] = target: GlcNAc(b1-6)Gal(b1-4)GlcNAc
Method in brief: as §1

GlcNAc(b1-6)GalNAc = target: GlcNAc(b1-6)GalNAc
Method in brief: as §1

[30] = target: GlcNAc6S(b1-3)Gal(b1-4)GlcNAc
Method in brief: as §1

Kdn(a2-3)Gal(b1-3)GalNAc = target: Kdn(a2-3)Gal(b1-3)GalNAc
Method in brief: as §1

Kdn(a2-3)Gal(b1-3)GlcNAc = target: Kdn(a2-3)Gal(b1-3)GlcNAc
Method in brief: as §1

Kdn(a2-3)Gal(b1-4)Glc = target: Kdn(a2-3)Gal(b1-4)Glc
Method in brief: as §1

Kdn(a2-3)Gal(b1-4)GlcNAc = target: Kdn(a2-3)Gal(b1-4)GlcNAc
Method in brief: as §1

[31] = target: Kdn(a2-3)Gal(b1-4)[Fuc(a1-3)]GlcNAc
Method in brief: as §1

Kdn(a2-6)Gal(b1-4)GlcNAc = target: Kdn(a2-6)Gal(b1-4)GlcNAc
Method in brief: as §1

[32] = target: Man(a1-2)Man(a1-2)Man(a1-3)Man
Method in brief: as §1

[33] = target: Man(a1-2)Man(a1-2)Man(a1-6)[Man(a1-3)]Man
Method in brief: as §1

Man(a1-2)Man(a1-3)Man = target: Man(a1-2)Man(a1-3)Man
Method in brief: as §1

[34] = target: Man(a1-2)Man(a1-3)[Man(a1-2)Man(a1-6)]Man
Method in brief: as §1

B1: SP16664D-bth-476-27-476 (Bacteroides thetaiotaomicron) (protein)
chain: DDLEVGKNIDESAYSGIYENNAYLRDGKSNLVSKVVELHGETYATTVKMGLSKTPNTATSAKVKIDAAYLETYNKAHNTDFALYPQDLVTFANEGILTVNANTKSAEVEMTIRAGEGLQEDKTYAIPVAISDQSSDITIKDEDAKHCIYLVKDMRNAGDAYKGEGVMQGYLFFEVNDVNPLNTLSFQLENGKLLWDVVVLFAANINYDAEAGRPRVQCNPNVQYLLDNNETLLQPLRRRGVKVLLGLLGNHDITGLAQLSEQGAKDFAREVAQYCKAYNLDGVNYDDEYSNSPDLSNPSLTNPSTAAAARLCYETKQAMPDKLVTVFDWGQMYGVATVDGVDAKEWIDIVVANYGSAAYPIGQMTKKQCSGISMEFNLGGGGSLSASKAQSMIDGGYGWFMGFAPSPAKYGSVFSRLQGGGEVLYGSNVAAPTIFYKKNDPTPYKYPDDL
glycan array binding signal (z-score) (GlcNAc(b1-3)Gal(b1-4)Glc): -0.066
glycan array binding signal (z-score) [1]: -0.253
glycan array binding signal (z-score) [2]: -0.223
glycan array binding signal (z-score) [3]: 0.073
glycan array binding signal (z-score) [4]: 0.087
glycan array binding signal (z-score) [5]: 0.054
glycan array binding signal (z-score) [6]: 0.328
glycan array binding signal (z-score) [7]: 0.137
glycan array binding signal (z-score) [8]: 0.65
glycan array binding signal (z-score) [9]: 0.341
glycan array binding signal (z-score) [10]: -0.18
glycan array binding signal (z-score) [11]: 0.373
glycan array binding signal (z-score) [12]: -0.126
glycan array binding signal (z-score) [13]: -0.399
glycan array binding signal (z-score) [14]: -0.136
glycan array binding signal (z-score) [15]: 0.164
glycan array binding signal (z-score) [16]: -0.242
glycan array binding signal (z-score) [17]: -0.105
glycan array binding signal (z-score) [18]: -0.233
glycan array binding signal (z-score) [19]: -0.083
glycan array binding signal (z-score) [20]: -0.3
glycan array binding signal (z-score) (GlcNAc(b1-3)GalNAc): -0.083
glycan array binding signal (z-score) (GlcNAc(b1-3)Man): -0.364
glycan array binding signal (z-score) [21]: -0.17
glycan array binding signal (z-score) [22]: -0.212
glycan array binding signal (z-score) [23]: -0.253
glycan array binding signal (z-score) [24]: -0.346
glycan array binding signal (z-score) (GlcNAc(b1-4)GlcNAc): -0.307
glycan array binding signal (z-score) [25]: -0.256
glycan array binding signal (z-score) [26]: 0.044
glycan array binding signal (z-score) [27]: -0.099
glycan array binding signal (z-score) [28]: -0.1
glycan array binding signal (z-score) [29]: 0.169
glycan array binding signal (z-score) (GlcNAc(b1-6)GalNAc): -0.16
glycan array binding signal (z-score) [30]: 0.027
glycan array binding signal (z-score) (Kdn(a2-3)Gal(b1-3)GalNAc): -0.3
glycan array binding signal (z-score) (Kdn(a2-3)Gal(b1-3)GlcNAc): -0.337
glycan array binding signal (z-score) (Kdn(a2-3)Gal(b1-4)Glc): -0.218
glycan array binding signal (z-score) (Kdn(a2-3)Gal(b1-4)GlcNAc): -0.213
glycan array binding signal (z-score) [31]: -0.221
glycan array binding signal (z-score) (Kdn(a2-6)Gal(b1-4)GlcNAc): -0.102
glycan array binding signal (z-score) [32]: -0.151
glycan array binding signal (z-score) [33]: -0.254
glycan array binding signal (z-score) (Man(a1-2)Man(a1-3)Man): -0.146
glycan array binding signal (z-score) [34]: 0.093
